The list shows a part of the results. Many values rest on one well or one pass, so single values are uncertain.
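Also: cell number obtained by counting DAPI-stained nuclei in high-throughput microscope images with image analysis software, screen run in 1,536-well plates.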

The assay concerns COLO792. Put plainly: cell count relative to DMSO control; melanoma cells; higher = more viable cells. As to conditions: library dose: low library concentration; 72 h.
The compound `Nc1ncn([C@H]2C[C@H](O)[C@@H](CO)O2)c(=O)n1` [decitabine] + CCCCCCCCCCCC1=C(O)C(=O)C=C(O)C1=O [Embelin] (first compound 0.1 µM, partner dose 1.2 µM) returned a cell count of 77.6%.

As to `Nc1ccn([C@@H]2O[C@H](CO)[C@@H](O)C2(F)F)c(=O)n1` [gemcitabine] + CCCCCCCCCCCC1=C(O)C(=O)C=C(O)C1=O [Embelin] (first compound 0.0004 µM, partner dose 1.2 µM), the cell count came to 98%.

In turn, `Nc1nc(F)nc2c1ncn2[C@@H]1O[C@H](CO)[C@@H](O)[C@@H]1O` [fludarabine] + CC(C)CCN1c2nc(Nc3cc(F)c(O)c(F)c3)ncc2N(C)C(=O)C1C [BID1870] (first compound 0.2 µM, partner dose 0.2 µM) registered a cell count of 86.3%.

Compound `CO[C@H]1C[C@@H]2CC[C@@H](C)[C@@](O)(O2)C(=O)C(=O)N2CCCC[C@H]2C(=O)O[C@H]([C@H](C)C[C@@H]2CC[C@@H](OCCO)[C@H](OC)C2)CC(=O)[C@H](C)/C=C(\C)[C@@H](O)[C@@H](OC)C(=O)[C@H](C)C[C@H](C)/C=C/C=C/C=C/1C` [everolimus] + COc1ccc(-c2ccc3c(N4CCOCC4)nc(N4C[C@@H](C)O[C@@H](C)C4)nc3n2)cc1CO [KU0063794] (first compound 0.02 µM, partner dose 0.02 µM) yielded a cell count of 51.8%.

For `CC(=O)O[C@@]12CO[C@@H]1C[C@H](O)[C@@]1(C)C(=O)[C@H](O)C3=C(C)[C@@H](OC(=O)[C@H](O)[C@@H](NC(=O)OC(C)(C)C)c4ccccc4)C[C@@](O)([C@@H](OC(=O)c4ccccc4)[C@H]21)C3(C)C` [Docetaxel] + CCN(CC)CCCCNc1ncc2cc(-c3cc(OC)cc(OC)c3)c(NC(=O)NC(C)(C)C)nc2n1 [PD173074] (first compound 0.0001 µM, partner dose 0.1 µM), the cell count amounted to 40.3%.

In turn, `Nc1nc(F)nc2c1ncn2[C@@H]1O[C@H](CO)[C@@H](O)[C@@H]1O` [fludarabine] + CN(NC(=O)CC(=O)NN(C)C(=S)c1ccccc1)C(=S)c1ccccc1 [STA4783] (first compound 0.2 µM, partner dose 0.006 µM) came in with a cell count of 59.7%.

As for `Nc1ncn([C@H]2C[C@H](O)[C@@H](CO)O2)c(=O)n1` [decitabine] + c1cc(-c2cnn3cc(-c4ccc(OCCN5CCCCC5)cc4)cnc23)ccn1 [Dorsomorphin] (first compound 0.1 µM, partner dose 0.4 µM), the cell count was 85.2%.

Regarding `CC(=O)c1c(C)c2cnc(Nc3ccc(N4CCNCC4)cn3)nc2n(C2CCCC2)c1=O` [palbociclib] + COc1cc(N2CCC(N3CCN(C)CC3)CC2)ccc1Nc1ncc(Cl)c(Nc2ccccc2S(=O)(=O)C(C)C)n1 [NVP-TAE684] (first compound 0.04 µM, partner dose 0.08 µM), the cell count was 62.5%.

Turning to `CC(=O)O[C@@]12CO[C@@H]1C[C@H](O)[C@@]1(C)C(=O)[C@H](O)C3=C(C)[C@@H](OC(=O)[C@H](O)[C@@H](NC(=O)OC(C)(C)C)c4ccccc4)C[C@@](O)([C@@H](OC(=O)c4ccccc4)[C@H]21)C3(C)C` [Docetaxel] + CCCCCCCCCCCC1=C(O)C(=O)C=C(O)C1=O [Embelin] (first compound 0.0001 µM, partner dose 1.2 µM), the cell count was determined as 29.9%.

Compound `Nc1nc(F)nc2c1ncn2[C@@H]1O[C@H](CO)[C@@H](O)[C@@H]1O` [fludarabine] + NCC(=O)Nc1ccc(-n2nc(C(F)(F)F)cc2-c2ccc3c(ccc4ccccc43)c2)cc1 [OSU03012] (first compound 0.2 µM, partner dose 1 µM) gave a cell count of 90.5%.

In turn, `Nc1ccn([C@@H]2O[C@H](CO)[C@@H](O)C2(F)F)c(=O)n1` [gemcitabine] + COc1cc(Nc2ncc(F)c(Nc3ccc4c(n3)NC(=O)C(C)(C)O4)n2)cc(OC)c1OC [Tamatinib] (first compound 0.0004 µM, partner dose 0.4 µM) displayed a cell count of 62.1%.

Compound `Nc1nc(F)nc2c1ncn2[C@@H]1O[C@H](CO)[C@@H](O)[C@@H]1O` [fludarabine] + COc1cc(N2CCC(N3CCN(C)CC3)CC2)ccc1Nc1ncc(Cl)c(Nc2ccccc2S(=O)(=O)C(C)C)n1 [NVP-TAE684] (first compound 0.2 µM, partner dose 0.08 µM) came in with a cell count of 96.7%.

For the compound `Nc1ncn([C@H]2C[C@H](O)[C@@H](CO)O2)c(=O)n1` [decitabine] + COc1cc(Nc2ncc(F)c(Nc3ccc4c(n3)NC(=O)C(C)(C)O4)n2)cc(OC)c1OC [Tamatinib] (first compound 0.1 µM, partner dose 0.4 µM), the cell count came to 49.5%.

`Nc1ccn([C@@H]2O[C@H](CO)[C@@H](O)C2(F)F)c(=O)n1` [gemcitabine] + Cc1ccc(NC(=O)c2cccc(N(C)C)c2)cc1NC(=O)c1ccc(O)cc1 [ZM336372] (first compound 0.0004 µM, partner dose 2 µM): the cell count is 87.5%.

As to `Nc1ncn([C@H]2C[C@H](O)[C@@H](CO)O2)c(=O)n1` [decitabine] + NCC(=O)Nc1ccc(-n2nc(C(F)(F)F)cc2-c2ccc3c(ccc4ccccc43)c2)cc1 [OSU03012] (first compound 0.1 µM, partner dose 1 µM), the cell count worked out at 83%.
